{"source": "ChEMBL document CHEMBL4888484", "about": "“Replenishing the malaria drug discovery pipeline: Screening and hit evaluation of the MMV Hit Generation Library 1 (HGL1) against asexual blood stage Plasmodium falciparum ,using a nano luciferase reporter read-out” (2022)", "note": "Among all 150,000 compounds or so, about 540 (0.36%) showed an effect of 50% or more. Some of the results follow."}
{"test_system": "Plasmodium falciparum", "assay": "Primary screen in NF54 nanoGlo assay, in single point, at 2uM, 72h; a lower Z score goes with more inhibition", "format": "functional, Erythrocyte", "conditions": "timepoint 72 hour", "units": {"% Inhibition": "%"}}
{"smiles": "CCn1ncc(NC(=O)Cn2ncc3cc(-c4ccc(OC)nc4)ccc32)n1", "% Inhibition": -7, "Z score": 1.35}
{"smiles": "COc1cc(-c2cccc(C(=O)N3CCS(=O)(=O)CC3)c2)nc(OC)n1", "% Inhibition": 9, "Z score": -1.14}
{"smiles": "CN(C)C1(CNC(=O)Nc2ccccc2OCc2ccco2)CCOCC1", "% Inhibition": -10, "Z score": 1.77}
{"smiles": "CN(C(=O)CC1CC2CCC1C2)[C@H]1CS(=O)(=O)C[C@@H]1O", "note": "(stereo not given in full)", "% Inhibition": 15, "Z score": -1.71}
{"smiles": "CN(C)C(=O)CNCc1ccc(C#CCO)s1", "% Inhibition": -12, "Z score": 2.17}
{"smiles": "COc1ccc(C)cc1NC(=O)c1c(C)cc(C)n1Cc1ccc(F)c(F)c1", "% Inhibition": -5, "Z score": 0.96}
{"smiles": "O=C([C@@H]1CCCc2[nH]ncc21)N1CCC2(CCC2)CC1", "% Inhibition": -22, "Z score": 2.57}
{"smiles": "CC(C)c1noc([C@H](C)NC(=O)CCC(=O)Nc2nncs2)n1", "% Inhibition": 0, "Z score": -0.07}
{"smiles": "O=C(c1ccc2c(=O)n3c(nc2c1)CCCCC3)N1CCCCCC1", "% Inhibition": -6, "Z score": 1.15}
{"smiles": "O=C(C1CCCC1)N1CCC[C@H]1c1ccncc1", "% Inhibition": -10, "Z score": 1.22}
{"smiles": "CCc1nnc(CNc2ccc(-c3cccc(F)c3)c(F)c2)o1", "% Inhibition": -4, "Z score": 0.79}
{"smiles": "CCC[C@H](O)CNC(=O)Nc1ccc(C)s1", "% Inhibition": -6, "Z score": 1.11}
{"smiles": "Cn1nnc2cc(-c3noc(-c4cn(-c5ccccc5)nc4-c4ccccc4)n3)ccc21", "% Inhibition": -5, "Z score": 0.5}
{"smiles": "C[C@@H](CN(C)c1nnc(-c2ccccn2)s1)C(=O)O", "% Inhibition": -11, "Z score": 1.45}
{"smiles": "OCCc1ccc(Oc2cc(-c3ccccc3)nc3ncnn23)cc1", "% Inhibition": 8, "Z score": -0.93}
{"smiles": "O=C(Nc1ccn(CC(F)(F)F)n1)[C@H]1CCCOC1", "% Inhibition": 7, "Z score": -1.2}
{"smiles": "CC1CN(CCCNC(=O)c2ccco2)CC(C)O1", "note": "(stereo not given)", "% Inhibition": -6, "Z score": 1.03}
{"smiles": "Cc1nn(C)c2nc(NCCc3nccs3)sc12", "% Inhibition": 6, "Z score": -0.82}
{"smiles": "Cn1cnnc1NC(=O)C1(c2ccc(Cl)c(Cl)c2)CCC1", "% Inhibition": -17, "Z score": 3.6}
{"smiles": "COc1cccc(CN2C[C@]34C=C[C@H](O3)C(C(=O)N3CCOCC3)C4C2=O)c1", "note": "(stereo not given in full)", "% Inhibition": -21, "Z score": 1.94}
{"smiles": "Cn1cc(S(=O)(=O)NCc2cncc(C3CC3)c2)cn1", "% Inhibition": 21, "Z score": -2.36}
{"smiles": "Cc1ccccc1-c1coc(-c2cccc(N)c2)n1", "% Inhibition": -12, "Z score": 1.92}
{"smiles": "CC[C@H]1C(=O)NCCN1Cc1cccc(C(=O)OC)n1", "% Inhibition": 2, "Z score": -0.4}
{"smiles": "O=C(C1CCCCCC1)N1CCC[C@H](c2cc(N3CCOCC3)ncn2)C1", "% Inhibition": -10, "Z score": 1.75}
{"smiles": "CCn1ncc(CN(C)c2cc(NCCO)ncn2)c1C", "% Inhibition": 0, "Z score": -0.03}
{"smiles": "c1ccc(-c2onc3cc(Oc4ccc5c(-c6ccccc6)onc5c4)ccc23)cc1", "% Inhibition": -9, "Z score": 1.76}
{"smiles": "COc1ccc(OC)c(-c2csc(NC(=O)Cc3n[nH]c4c3CCCC4)n2)c1", "% Inhibition": -12, "Z score": 1.73}
{"smiles": "C[C@@]1(NC(=O)CCc2nc(C3CCCC3)no2)CC=CCC1", "% Inhibition": -10, "Z score": 1.9}
{"smiles": "c1cnc2c(Cc3noc(C4CCN(C5CC5)CC4)n3)cccc2c1", "% Inhibition": -8, "Z score": 0.88}
{"smiles": "CC(C(=O)NCC(c1ccsc1)N(C)C)n1cncn1", "note": "(stereo not given)", "% Inhibition": -8, "Z score": 1.17}
{"smiles": "CCCOc1ccc(-c2nc3ccc(-c4ccc5c(c4)OCO5)cc3o2)cc1", "% Inhibition": -8, "Z score": 1.28}
{"smiles": "CC[C@H](C)NC(=O)c1nc(-c2ccnc(N3CCOCC3)c2)no1", "% Inhibition": -11, "Z score": 1.51}
{"smiles": "CCCCn1nc(-c2csc(C)n2)nc1CCOC", "% Inhibition": 1, "Z score": -0.21}
{"smiles": "Cc1cc(=O)n(Cc2ccccc2F)c2cc(OCC(=O)NCC3CC3)ccc12", "% Inhibition": -1, "Z score": 0.14}
{"smiles": "Cc1cc(NS(=O)(=O)c2cn(C)nc2C)no1", "% Inhibition": -2, "Z score": 0.31}
{"smiles": "CC(C)(C)OC(=O)N1CCC[C@H]1c1ncc(Br)cn1", "% Inhibition": -7, "Z score": 1.15}
{"smiles": "COc1ccc(OCCOCCNC(C)C)cc1", "% Inhibition": -6, "Z score": 1.1}
{"smiles": "CCN1CCc2ccc(NC(=O)CNC)cc21", "% Inhibition": -7, "Z score": 0.65}
{"smiles": "COc1ccccc1NC(=O)C(=O)Nc1ccccn1", "% Inhibition": -4, "Z score": 0.73}
{"smiles": "O=C1NCC2(CCN(C(=O)c3cc4ccccc4s3)CC2)O1", "% Inhibition": -8, "Z score": 0.86}
{"smiles": "COC(=O)[C@@H]1C[C@@H](n2ccnc2-c2cnc(N(C)C)nc2)CN1C", "% Inhibition": -2, "Z score": 0.41}
{"smiles": "COc1ccc(NC(=O)Cn2c(=O)ncc3cc(S(=O)(=O)N4CCCC[C@@H]4C)ccc32)cc1Cl", "% Inhibition": -3, "Z score": 0.54}
{"smiles": "CC(C)Cc1nc(CNC(=O)CCNS(C)(=O)=O)no1", "% Inhibition": 4, "Z score": -0.66}
{"smiles": "CC(C)c1nccc(NCCCc2cn[nH]c2)n1", "% Inhibition": 13, "Z score": -1.66}
{"smiles": "COC(=O)C1(NCCC(=O)N2CCc3ccccc3C2)CCCC1", "% Inhibition": -7, "Z score": 0.92}
{"smiles": "COc1nscc1-c1noc([C@@H]2CCCN2C)n1", "% Inhibition": -5, "Z score": 0.8}
{"smiles": "C[C@@H](CS(=O)(=O)NCc1ncc(C(C)(C)C)o1)c1ccccc1", "% Inhibition": 11, "Z score": -1.39}
{"smiles": "CN1C(=O)c2cc(C(F)(F)F)ccc2O[C@H]2CN(C(=O)COc3ccccc3)C[C@H]21", "% Inhibition": 31, "Z score": -3.52}
{"smiles": "CS(=O)(=O)c1ccc(OC[C@@]2(CNS(=O)(=O)c3ccc(Cl)cc3)C[C@@H](O)[C@@H](O)C2)cc1", "% Inhibition": -8, "Z score": 1.27}
{"smiles": "Cc1nnc([C@H]2CN(C(=O)c3ccccc3)CC23CCN(Cc2ccccc2)CC3)o1", "% Inhibition": -19, "Z score": 2.81}
{"smiles": "CN(Cc1noc2c1CCCC2)C(=O)c1c[nH]nc1-n1cnnn1", "% Inhibition": -11, "Z score": 1.54}
{"smiles": "O=C(Cc1ccon1)Nc1ncccc1-c1ccccc1", "% Inhibition": 3, "Z score": -0.6}
{"smiles": "O=C(NC1(c2cc(F)ccc2F)CC1)[C@H]1CCC[C@H](O)C1", "% Inhibition": -2, "Z score": 0.2}
{"smiles": "NC(=O)[C@H]1CCN(C(=O)c2ccc(Oc3ccc(Cl)cn3)cc2)C1", "% Inhibition": -10, "Z score": 1.32}
{"smiles": "Cc1cc(F)ccc1NC(=O)c1cnn(-c2cccc(F)c2)c1C1CCN(C(=O)OC(C)(C)C)CC1", "% Inhibition": -6, "Z score": 0.65}
{"smiles": "CC(C)c1ncc(NC(=O)c2ccc(S(C)(=O)=O)cc2)cn1", "% Inhibition": -12, "Z score": 1.95}
{"smiles": "O=C(N[C@H]1CCN2C(=O)c3ccc(Cl)cc3NC(=O)[C@H]12)c1cccc(F)c1", "% Inhibition": 8, "Z score": -1.09}
{"smiles": "CCCC[C@H](N)C(=O)N(C)Cc1ncc(Cl)n1C", "% Inhibition": -1, "Z score": 0.08}
{"smiles": "Cc1nnc(NC(=O)CN(C)S(=O)(=O)c2ccc(Br)cc2)s1", "% Inhibition": 9, "Z score": -0.98}
{"smiles": "Fc1ccc(Cc2nnc3sc(C4CCCCC4)nn23)cc1", "% Inhibition": 1, "Z score": -0.12}
{"smiles": "Cc1cc(O)nc(C(C)N2CCOC(c3nc(C)cs3)C2)n1", "note": "(stereo not given)", "% Inhibition": -6, "Z score": 0.89}
{"smiles": "O=C1NC2(CCCCC2)C(=O)N1Cc1nc(-c2ccc(Cl)cc2)no1", "% Inhibition": 30, "Z score": -3.03}
{"smiles": "CCN1CCN(CC(=O)N2CCCc3ccccc32)CC1", "% Inhibition": 2, "Z score": -0.24}
{"smiles": "O=C(Nc1ccc(Cl)cc1Cl)c1ccc(C(=O)Nc2ccc(Cl)cc2Cl)s1", "% Inhibition": -3, "Z score": 0.3}
{"smiles": "O=C(CCCc1nnc(C(=O)Nc2cccc(Cl)c2)s1)NCCN1CCOCC1", "% Inhibition": -6, "Z score": 0.83}
{"smiles": "O=C(Nc1ccsc1)N[C@H]1C[C@H]2C(=O)NC[C@@H](CCC(=O)N3CCCC3)N2C1", "% Inhibition": -13, "Z score": 1.65}
{"smiles": "N#Cc1ccc(N2C[C@H]3CC[C@@H](C2)N(CC2CC2)C3=O)nc1", "% Inhibition": 0, "Z score": 0.04}
{"smiles": "Cc1cnc(CN[C@H](c2ccc(F)c(Cl)c2)C2CC2)o1", "% Inhibition": -9, "Z score": 1.78}
{"smiles": "CCN(C)C(=O)[C@H]1C[C@@](C)(C(=O)O)N(C)[C@H]1c1ccccc1", "% Inhibition": 4, "Z score": -0.9}
{"smiles": "COCCC(=O)N1CCC2(CC1)N(Cc1cccc(F)c1)C(=O)C[S@+]2[O-]", "% Inhibition": 2, "Z score": -0.4}
{"smiles": "CN1CCC(n2nccc2NC(=O)c2nn(C)c(=O)c3ccccc23)CC1", "% Inhibition": -14, "Z score": 2.55}
{"smiles": "COc1cc(C)c(-c2ccc(C(=O)N(C)C[C@H]3CC(=O)N(C)C3)cc2)cc1C", "% Inhibition": -2, "Z score": 0.24}
{"smiles": "O=C(c1ccccc1Oc1ccccc1)N1CC2CCC(O)CC2C1", "note": "(stereo not given)", "% Inhibition": 16, "Z score": -2.08}
{"smiles": "COc1ccc(-c2nn(CN3CC(C)OC(C)C3)c(=S)o2)cc1OC", "note": "(stereo not given)", "% Inhibition": -3, "Z score": 0.67}
{"smiles": "Cc1nc2cc(NC(=O)[C@@]3(C)CCCN(C(=O)c4ccccc4)C3)ccc2o1", "% Inhibition": 55, "Z score": -8.5}
{"smiles": "CCCCOCC(=O)N(C)CCN(C)C1CC1", "% Inhibition": 1, "Z score": -0.13}
{"smiles": "CN(CC(=O)N1CCCC1)C[C@H](O)COCc1ccc2c(c1)OCO2", "% Inhibition": -13, "Z score": 1.3}
{"smiles": "CN(C)c1cccc(S(=O)(=O)Nc2cc(C(C)(C)C)no2)c1", "% Inhibition": 2, "Z score": -0.25}
{"smiles": "Cc1nc(C2=C(O)CN(CCC(c3ccccc3)c3ccccc3)C2=N)sc1C", "% Inhibition": -3, "Z score": 0.32}
{"smiles": "Cn1ncc2cc(S(=O)(=O)N[C@@H]3COc4ccccc4C3)cnc21", "% Inhibition": 4, "Z score": -0.72}
{"smiles": "C[C@H](Nc1cccc(C(=O)NCc2ccccn2)c1)C1CC(F)(F)C1", "% Inhibition": 6, "Z score": -1.09}
{"smiles": "Cc1nnc2n1CCN(C(=O)c1ccc3c(c1)OCCO3)C2", "% Inhibition": 1, "Z score": -0.14}
{"smiles": "Cc1cccc(OCc2nc(C3CC3)n[nH]2)c1", "% Inhibition": -10, "Z score": 1.48}
{"smiles": "CN(C)[C@H]1CCN(CC(=O)N2CC(OCc3cccc(F)c3)C2)C1", "% Inhibition": -16, "Z score": 3.12}
{"smiles": "Fc1ccc(F)c(CN2CCN(Cc3ccno3)CC2)c1", "% Inhibition": 4, "Z score": -0.62}
